Data published in the supplement of paper PMC10126150.
Values marked as one replicate rest on one cluster of the flow cell; about a third of the high ones do not repeat.

Tested on: ATP
Assay: switch fluorescence ratio, 500 uM ATP over buffer (Cy3 cluster intensity, sum of 5 cycles each) (fold (ratio)); higher = stronger signal-on switching upon ATP binding; sequences stand for … in TCGTCGGCAGCGTCAGATGTGTATAAGAGACAGTTTTTTTTTTTTTTTTTTTTTTTTT…TC
Details: aptamer strand: ATP DNA aptamer (quencher-CACCTGGGGGAGTATTGCGGAGGAAGG + anchor), 100 nM annealed; ATP concentration: 500 uM; one replicate
Procedure, shortened: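 Values give the fluorescence ratio for each switch-domain sequence, averaged from per-cluster ratios of summed target-cycle to summed buffer-cycle Cy3 intensity. The Cy3-labelled switching-strand clusters sat on a modified Illumina MiSeq flow-cell, were annealed to 100 nM quencher-labelled ATP aptamer, and were imaged in selection buffer, then after 15 min with 500 uM ATP at 22 °C. Five cycles ran with NaOH stripping and re-annealing between them, and clusters outside 100-1000 RFU were excluded.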
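Further: ATP exposure 15 min at 22 °C before imaging.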

Sequence | switch fluorescence ratio
GCGTCGGCGC | 1.07
GCGTCGGTGA | 0.994
GCGTGAAGG | 1.06
GCGTGACG | 1.06
GCGTGCGATA | 1.04
GCGTGGCCTA | 0.959
GCGTGTGACA | 0.989
GCGTTAGGAT | 1.03
GCGTTCCAAT | 1.02
GCGTTGAGGC | 0.951
GCGTTGGTGG | 0.978
GCGTTGTCAT | 0.986
GCGTTTCTGG | 1.01
GCGTTTGGCC | 0.936
GCTAAATCAC | 1.17
GCTAATAGTA | 0.981
GCTAATGATC | 1.03
GCTACCAGCC | 1.04
GCTACCCCGT | 1.38
GCTACCCTAT | 1.08
GCTACCGATC | 1.3
GCTACCGGAT | 0.963
GCTACCTCTT | 1
GCTACGAGGT | 1.07
GCTACGCGCG | 1.05
GCTACGTCGC | 0.995

Sequence | switch fluorescence ratio
GCTACTGTTG | 1
GCTACTTAGA | 1.07
GCTAGAGGAT | 0.996
GCTAGCATAA | 1.01
GCTAGCATAT | 1.04
GCTAGCATGC | 1.06
GCTAGGACTC | 1.02
GCTAGGTAAT | 1.06
GCTAGGTTCG | 0.947
GCTAGTTCCG | 1.06
GCTATAAGCT | 1.06
GCTATAGCC | 1
GCTATCTCTG | 0.977
GCTATGACGC | 1.06
GCTATGCATT | 1.02
GCTATGGAAG | 1.01
GCTATTTAAC | 1
GCTCAAACAT | 1.03
GCTCACGGCA | 1.03
GCTCAGGAGG | 1.06
GCTCATACAC | 1.08
GCTCATATGT | 0.986
GCTCATCGAT | 1.02
GCTCATGTGT | 0.985
GCTCCAAAGT | 1.07
GCTCCTTAAT | 1.19

Sequence | switch fluorescence ratio
GCTCGACTCT | 1.03
GCTCGATTTC | 1.07
GCTCGCATGG | 1.38
GCTCGTCAAA | 0.996
GCTCTAAAGG | 1.04
GCTCTAACGG | 0.966
GCTCTACTCT | 1.09
GCTCTATTAC | 1.38
GCTCTCATGC | 1.07
GCTCTCTTCA | 1.01
GCTCTGGAAG | 1.07
GCTCTGTAG | 1.05
GCTGAAAACG | 1.02
GCTGAAGTTG | 0.991
GCTGAATCGG | 0.998
GCTGAGTTAA | 1.01
GCTGATACTG | 1.06
GCTGATAGAA | 1
GCTGATGTTG | 0.962
GCTGATTGTA | 0.999
GCTGCAAGTC | 1.27
GCTGCAGCTT | 0.983
GCTGCGCAGA | 1.15
GCTGCGCCTC | 1.39
GCTGCTGAAC | 1.13
GCTGCTGGTT | 0.994

Sequence | switch fluorescence ratio
GCTGCTTTAC | 2.66
GCTGGAAAAG | 1.03
GCTGGACCAC | 1.05
GCTGGATTTT | 1.01
GCTGGGAGG | 1.01
GCTGGGGCTG | 0.933
GCTGGGGGT | 1
GCTGGTATCT | 0.887
GCTGGTGCGC | 0.96
GCTGTATGCG | 0.915
GCTGTGCCTT | 0.974
GCTGTGGCCA | 0.995
GCTGTGTAGC | 0.985
GCTGTGTGCA | 1.01
GCTGTTCGTT | 0.982
GCTTAAGAA | 1.01
GCTTAAGACG | 0.958
GCTTACAGTT | 1.04
GCTTACTAGG | 1.06
GCTTAGGGGC | 1
GCTTATCT | 0.95
GCTTCGGCAT | 1.04
GCTTCGTCCC | 1.48
GCTTCTAGCG | 1.03
GCTTCTATAT | 1.02
GCTTCTGGTG | 1.05

Sequence | switch fluorescence ratio
GCTTCTTGAG | 1.09
GCTTGAAAGT | 1.01
GCTTGACTGA | 0.984
GCTTGATTTT | 0.998
GCTTGCAACG | 1.02
GCTTGCTCTT | 1.01
GCTTGGCAGC | 0.979
GCTTGTCCAG | 0.963
GCTTGTGTCA | 0.994
GCTTGTGTTG | 1.06
GCTTGTTTAT | 1.47
GCTTTAAGGA | 1.01
GCTTTCGTCA | 0.993
GCTTTGGAAA | 0.946
GCTTTTATTG | 1
GCTTTTGACT | 1
GCTTTTGAGT | 0.991
GCTTTTTATT | 1.01
GCTTTTTTTC | 0.997
GGAAAACGAT | 0.976
GGAAAAGAGT | 1.01
GGAAAATCG | 0.976
GGAAACACGG | 1.03
GGAAAGCAAC | 1.18
GGAAAGTCGG | 1.02
GGAAATACGT | 1.02

Sequence | switch fluorescence ratio
GGAAATCAAC | 1.12
GGAACAGGGG | 1.06
GGAACGCCGA | 1.05
GGAACTAGTT | 1.01
GGAACTGGAT | 1.01
GGAACTGGCT | 1.01
GGAAGAGAGT | 1
GGAAGATTTA | 0.997
GGAAGCCGGG | 1.18
GGAAGGCGT | 1.03
GGAAGGGAAT | 1.02
GGAAGGGGAC | 0.997
GGAAGTCGAC | 1.07
GGAAGTGTC | 1.01
GGAATAAAGA | 1.05
GGAATAAGAG | 0.961
GGAATAAGGC | 1.07
GGAATCGCAC | 1.21
GGAATCGGGT | 0.992
GGAATCTCG | 0.996
GGAATGACGC | 1
GGAATGATAG | 1.02
GGAATTACTA | 0.954
GGAATTTATA | 0.983
GGACAGTTTA | 0.975
GGACATCGAA | 0.993

Sequence | switch fluorescence ratio
GGACCAGTTC | 1.06
GGACCCAAGT | 0.98
GGACCGATAA | 1.03
GGACGAGGTA | 1.04
GGACGCATGA | 1.6
GGACGCCGGT | 0.949
GGACGGAACT | 1.07
GGACGTCGGG | 0.991
GGACTACGCC | 1.45
GGACTATTCA | 1.01
GGACTCAGCT | 1.07
GGACTCTAAG | 0.951
GGACTCTGCT | 1.1
GGACTGATCG | 0.994
GGACTGGGG | 1.05
GGACTGTTTT | 0.965
GGACTTGGAA | 0.953
GGAGAATGTT | 0.995
GGAGACCGCG | 0.967
GGAGAGAGTA | 1.01
GGAGAGC | 0.896
GGAGAGGCGG | 1.03
GGAGATAAG | 1.01
GGAGCTAGAA | 1.49
GGAGCTGTTG | 0.995
GGAGCTTAAA | 1.01

Sequence | switch fluorescence ratio
GGAGGAACGT | 1.37
GGAGGAAGCT | 1.01
GGAGGAGCGG | 0.988
GGAGGCACGC | 0.998
GGAGGCTTGT | 0.953
GGAGGGCCAT | 0.954
GGAGGGTCCG | 0.952
GGAGGGTGTG | 1.02
GGAGGTAATC | 1.06
GGAGGTCAGA | 0.996
GGAGTAATGG | 3.23
GGAGTAGGAG | 0.983
GGAGTAGGTC | 0.959
GGAGTATAGT | 1.05
GGAGTCGCGA | 1.05
GGAGTCTTAC | 1.03
GGAGTGCCTA | 0.998
GGAGTGCTTA | 0.995
GGAGTGGAC | 0.977
